This is one part of the list.
Test system: HSkMC (human skeletal muscle cells)
Assay: cytotoxicity call (relative viability < 0.9)
Conditions: 10 µM

Row | SMILES | cytotoxicity call
1 | C[C@H](CO)N1C[C@H](C)[C@@H](CN(C)Cc2ccc(-c3ccccc3)cc2)Oc2ccc(NS(=O)(=O)c3ccccc3)cc2C1=O | inactive
2 | COc1ccc(CN(C)C[C@@H]2OCCCC[C@@H](C)Oc3ccc(NC(=O)NC4CCCCC4)cc3C(=O)N([C@@H](C)CO)C[C@@H]2C)cc1 | inactive
3 | Cc1ccccc1S(=O)(=O)N1C[C@@H](O)COC[C@@H]2O[C@H](CC(=O)NCCc3ccccc3)CC[C@H]21 | inactive
4 | COc1ccc(NC(=O)Nc2ccc3c(c2)C(=O)N([C@@H](C)CO)C[C@@H](C)[C@H](CN(C)S(=O)(=O)c2ccc(F)cc2)OCCCC[C@@H](C)O3)cc1 | inactive
5 | Cc1noc(C)c1S(=O)(=O)Nc1ccc2c(c1)C(=O)N([C@H](C)CO)C[C@@H](C)[C@@H](CN(C)Cc1ccc(C(F)(F)F)cc1)OCCCC[C@H](C)O2 | inactive
6 | CN[C@@H](C)C(=O)N[C@H]1CN(C(=O)CC(C)C)CC[C@H]2CC[C@@H](C(=O)NC(c3ccccc3)c3ccccc3)N2C1=O | inactive
7 | Cc1noc(C)c1NC(=O)N(C)C[C@@H]1OCCCC[C@@H](C)Oc2ccc(NC(=O)c3ccccc3)cc2C(=O)N([C@H](C)CO)C[C@H]1C | inactive
8 | Cc1cc([C@@H](O)CCCN)ccc1F | inactive
9 | COc1ccc(S(=O)(=O)Nc2cccc3c2O[C@@H](CN(C)S(=O)(=O)c2ccc(C)cc2)[C@H](C)CN([C@H](C)CO)C3=O)cc1 | inactive

Test system: HepG2
Assay: cytotoxicity call (relative viability < 0.9)
Conditions: 10 µM

Row | SMILES | cytotoxicity call
10 | Cc1noc(C)c1NC(=O)N(C)C[C@@H]1Oc2c(NC(=O)C3CCOCC3)cccc2C(=O)N([C@@H](C)CO)C[C@@H]1C | inactive
11 | C[C@@H]1CN([C@@H](C)CO)C(=O)c2cc(-c3cncnc3)cnc2O[C@H]1CN(C)C(=O)CN1CCOCC1 | inactive
12 | Cc1cc(C(=O)COC(=O)Cn2cnc3c2c(=O)n(C)c(=O)n3C)c(C)n1C | inactive
13 | Cc1nc(N)sc1-c1ccnc(Nc2ccc(N3CCOCC3)cc2)n1 | active
14 | N[C@H]1[C@H](CCCCC(=O)O)SC[C@@H]1N | inactive
15 | O=C(C[C@H]1C=C[C@@H](NS(=O)(=O)c2ccc(F)cc2)[C@H](CO)O1)N1CCC(Cc2ccccc2)CC1 | inactive
16 | C[C@@H]1CCCCO[C@@H](CN(C)C(=O)Nc2cccc3ccccc23)[C@H](C)CN([C@H](C)CO)C(=O)c2cc(NC(=O)Nc3ccc(C(F)(F)F)cc3)ccc2O1 | inactive
17 | C[C@@H]1CN([C@H](C)CO)C(=O)c2cc(NS(=O)(=O)c3ccc(F)cc3)ccc2O[C@@H]1CN(C)Cc1ccc(Cl)c(Cl)c1 | inactive
18 | CC(C)NC(=O)Nc1cccc2c1O[C@@H](CN(C)S(=O)(=O)c1ccccc1)[C@@H](C)CN([C@@H](C)CO)C2=O | inactive
19 | C[C@H](CO)N1C[C@H](C)[C@@H](CN(C)C(=O)Nc2cccc3ccccc23)OCc2cn(nn2)CCCC1=O | inactive
20 | OCC1(CO)COC(COc2ccccc2)=N1 | inactive
21 | O=C(C[C@H]1CC[C@@H](NC(=O)CN2CCOCC2)[C@@H](CO)O1)NC1CCC1 | inactive
22 | COC(=O)[C@H]1[C@H](CO)[C@H]2Cn3c(ccc(-c4ccccc4)c3=O)[C@H]2N1S(C)(=O)=O | inactive
23 | C[C@@H]1CN([C@H](C)CO)C(=O)c2cc(NC(=O)Nc3ccc(C(F)(F)F)cc3)ccc2O[C@@H](C)CCCCO[C@H]1CN(C)S(=O)(=O)c1cccs1 | inactive
24 | COc1ccc(S(=O)(=O)N(C)C[C@H]2Oc3cc(C#CC4CC4)ccc3S(=O)(=O)N([C@@H](C)CO)C[C@H]2C)cc1 | inactive
25 | C[C@H](CO)N1C[C@H](C)[C@@H](CN(C)C(=O)Cc2ccncc2)Oc2cc(C#CC3(O)CCCC3)ccc2S1(=O)=O | inactive
26 | C[C@H]1CN([C@@H](C)CO)C(=O)c2cc(NC(=O)CCC(F)(F)F)ccc2O[C@H]1CN(C)S(C)(=O)=O | inactive
27 | Cc1noc(C)c1S(=O)(=O)Nc1ccc2c(c1)C(=O)N([C@@H](C)CO)C[C@H](C)[C@@H](CN(C)S(=O)(=O)c1cn(C)cn1)OCCCC[C@H](C)O2 | inactive
28 | C=C[C@@H](COC(=O)OC(C)(C)C)N(Cc1ccc(OC)cc1)S(=O)(=O)c1ccc(Br)cc1 | inactive
29 | COCCNC(=O)C[C@@H]1CC[C@H]2[C@H](COc3ccc(NC(=O)Nc4cccc(F)c4)cc3C(=O)N2C)O1 | inactive
30 | N#C/C(=C\c1cccs1)c1csc2ccc(Cl)cc12 | inactive
31 | C[N+](C)(C)CCCCCC[N+](C)(C)C.[Br-].[Br-] | inactive
